Test results taken from PubChem BioAssay AID743279 (National Center for Advancing Translational Sciences (NCATS), 2014).
Out of some 360,000 compounds screened, about 17,000 (4.7%) were called active. Inconclusive means that the source gave no clear call. Such entries were picked first, then a sample of the others. Rule as the data show it: active = activity change below about -50%; inconclusive = mostly about -30% to -49%; inactive = weaker than that.

experiment: qHTS for Inhibitors of Inflammasome Signaling: IL-1-beta AlphaLISA Primary Screen; settings: THP-1 LPS/ATP IL-1B secretion, 16 h; at 57.5 µM, active compounds read low
Procedure, shortened: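 THP-1 cells pretreated 1 hr with compounds (up to 57.5 uM final), then stimulated with LPS (250 ng/mL final) plus ATP (1.25 mM final); secreted IL-1B measured by AlphaLISA after 16 hr, decreased signal indicating inhibition.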
% is scaled to controls: 0 for no effect and ±100 for the full control effect.

Activity change, inconclusive:
Cc1occc1-c1nnc(SCC(=O)Nc2ccccc2)n1C(C)c1ccccc1 (configuration not stated) -34.1%
Cc1nnsc1C(=O)Nc1ccc(S(=O)(=O)N2CCCC(C)C2)cc1 (configuration not stated) -38%
COc1ccc(C(=O)N2CCN(c3ccc([N+](=O)[O-])c(NCCc4ccc(OC)c(OC)c4)c3)CC2)cc1 -34.8%
CC(Oc1ccccc1)C(=O)N1CCN=C1SCc1ccccc1F (configuration not stated) -47.7%
Cc1nc([N+](=O)[O-])c(Br)n1CC(=O)c1ccccc1 -49%
c1ccc(C2Nc3ccccc3-c3nc4ccccc4n32)cc1 (configuration not stated) -33.9%
Cc1cc(C(F)F)n2ncc(C(=O)NC3CCCCCC3)c2n1 -49.5%
CC(C)(C)c1ccc(C(O)c2ncc(-c3ccccc3Cl)[nH]2)cc1 (configuration not stated) -34.2%
NC[C@H](Cc1ccccc1)NCCc1cc(C(F)(F)F)cc(C(F)(F)F)c1 -46.9%
CCOc1ccc(OCC)c(NC(=O)CN(C)S(=O)(=O)c2cccc3nsnc23)c1 -30.8%
O=C(c1ccccc1F)N1CCN(Cc2cccc(Cl)c2)CC1 -37.6%
CSCCC(NC(=O)c1ccco1)C(=O)N1CCN(C(c2ccccc2)c2ccccc2)CC1 (configuration not stated) -44.4%
O=S(=O)(c1cccc2cccc(Cl)c12)N1CCCC1 -38.7%
Cc1ccc2nc(Nc3nc(-c4ccccc4)cc(=O)[nH]3)nc(C)c2c1 -33.1%
COc1ccc(Cl)cc1C(=O)N1CCC2(CC1)CC(=O)c1ccccc1O2 -43.5%
CC1CCCC(NC(=O)CSC2CCCCC2)C1C (configuration not stated) -47.4%
COc1ccc2cc(-c3ccccc3)c(=O)oc2c1 -31.8%
COc1ccc(N2CCN(C(=O)c3cccc(Br)c3)CC2)c([N+](=O)[O-])c1 -41.4%
Cc1ccc(NC(=O)CN2C(=O)NC(C)(c3ccc4c(c3)OCO4)C2=O)cc1 (configuration not stated) -32.1%
Cn1cccc1-c1cc(C(=O)N/N=C/c2ccccc2Cl)[nH]n1 -45.8%
CCOc1cc(C(=O)OCc2cccc(OC)c2OC)ccc1OCC(=O)N1CCOCC1 -32.6%
CN1CCN(c2oc(-c3ccccc3)nc2S(=O)(=O)c2ccc(Br)cc2)CC1 -38.2%
O=C(Nc1ccc(N2CCCCC2)c(S(=O)(=O)Nc2ccccc2Cl)c1)c1cccnc1 -40.7%
O=C(CSC(=S)N1CCSCC1)c1ccc(Cl)cc1 -45.7%
O=C(CNC(=O)c1cccc(-n2cccc2)c1)Nc1ccccc1Br -44.4%
CCOC(=O)/C(=C\C=C1/Sc2ccccc2N1CC)C(C)=O -39%
COc1ccc(OC)c(C2=NOC(C(=O)Nc3ccc4c(c3)OCCO4)C2)c1 (configuration not stated) -31.8%
CC(C)(C)C(=O)Nc1ccc(N2CCN(C(=O)c3cccs3)CC2)cc1 -36.2%
O=S(=O)(c1ccc(SCCOc2ccc(Cl)cc2)nc1)N1CCCC1 -33.2%
Cc1ccc(-c2cc(N)n(-c3ccccc3)n2)cc1 -44.8%
CCCNC(=O)C1(CC2CC(c3ccccc3)=NO2)CCN(C(=O)c2cc(OCC)c(OCC)c(OCC)c2)CC1 (configuration not stated) -39.1%
CC(NC(=O)c1cc2ccccc2o1)c1cccs1 (configuration not stated) -49.8%
CC(C)c1ccc(N(CC(=O)NCc2ccco2)C(=O)CCC(=O)Nc2nccs2)cc1 -47.4%
O=C(Nc1cc(Cl)ccc1Cl)C1Cc2ccccc2O/C1=N\O (configuration not stated) -42.6%
COc1ccc(-c2cc(-c3ccccc3)nc(NN)n2)cc1OC -42.8%
COc1ccc(NC(=O)CN2C(=O)/C(=C3\SC(=S)N(C4CCS(=O)(=O)C4)C3=O)c3ccccc32)cc1 (configuration not stated) -42.4%
NS(=O)(=O)c1ccc(CCNCC(=O)N2CCC(Cc3ccccc3)CC2)cc1 -48.6%
CCCNc1c(NS(=O)(=O)c2ccc(C3CCCCC3)cc2)c(=O)oc2ccccc12 -34.8%
COc1cccc(Cn2c(C(C)n3c(-c4cnccn4)nc4ccccc43)nc3ccccc32)c1 (configuration not stated) -31.3%
O=C(NCc1ccco1)c1ccccc1NC(=O)C1CC(=O)N(c2ccc(Cl)cc2)C1 (configuration not stated) -33%
O=Cc1cn(-c2ccccc2)nc1-c1ccccn1 -40.6%
O=C(CSc1nnc(Nc2ccccc2)s1)Nc1ccc(S(=O)(=O)N2CCOCC2)cc1 -35.4%
COc1cc(NC(=O)c2ccc3snnc3c2)cc(OC)c1 -33.7%
Cc1[nH]n(-c2cccc(Cl)c2)c(=O)c1-c1ccc(Cl)cc1 -43.6%
Cc1ccc(Cl)cc1NC(=S)N(CCCN1CCN(C)CC1)Cc1ccco1 -35.4%
O=C(Cc1ccc(Cl)cc1)NNc1c(F)c(F)cc(F)c1F -35.1%
Cc1cccc(-n2cnc3cc(C(=O)NCCN4CCOCC4)ccc32)c1 -36.8%
COc1cccc(NC(=S)N(CCN2CCCCC2)Cc2ccco2)c1 -31.3%
COc1cccc(-c2nc3ccc(C(=O)NC(C)Cc4cccnc4)cc3o2)c1 (configuration not stated) -48.8%
CCc1nn2cc(C(=O)c3cc(C)ccc3O)cnc2c1-c1ccc(F)cc1 -43.7%

Activity change, inactive:
Cc1ccccc1C(=O)N/N=C/c1ccccn1 14.3%
Cc1ccc(NC(=O)/C(C#N)=C/c2ccccc2C(F)(F)F)cc1 -24.3%
CCOC(=O)N1CCN(c2cc3nccnc3cc2F)CC1 -15.1%
CCN(CC)C(=O)CSc1nc(O)cc(=O)n1-c1ccccc1OC -25.9%
Cc1ccc(-c2nc(NC(=O)CSc3nnc4scc(-c5ccccc5)n34)ns2)cc1 24%
O=C(NCC(O)c1ccccc1)c1cccs1 (configuration not stated) -12.6%
Cc1cccc(C)c1NC(=O)C1(C)CN(S(C)(=O)=O)CC(=O)N1CC(F)(F)F (configuration not stated) 24.2%
Nc1sc(-c2ccccc2)cc1C(=O)N1CCN(c2ccccc2)CC1 -25.6%
CCOC(=O)c1ccc(NS(=O)(=O)c2cc3c(cc2C)NC(=O)CO3)cc1 0.398%
O=C(NC(=O)c1ccccc1F)Nc1nc(-c2cccs2)cc(C(F)(F)F)n1 24.6%
C/C(=N\OCC(=O)OCC(=O)NCc1ccccc1)c1ccc2c(c1)OCO2 3.44%
CN1CCN(c2ccc([N+](=O)[O-])cc2C(=O)c2ccc(Br)cc2)CC1 -2.96%
N#CC1(Nc2ccc(-c3ccc(NC4(C#N)CCCC4)cc3)cc2)CCCC1 -8.99%
COc1ccc(C2(C)NC(=O)N(CC(=O)NCCC3=CCCCC3)C2=O)cc1OC (configuration not stated) -11.8%
COC(=O)c1ccc2c(c1)c(-c1ccccc1)c(-c1ccccc1)n2C -6.07%
Cc1cccc(C)c1-n1nnnc1C1(C)CCC(=O)N1CC(F)(F)F (configuration not stated) 25.3%

Activity change, active:
C=CC(=O)Nc1cccc(Oc2cc(Cl)nc3[nH]ccc23)c1 -72.5%
CC(=O)c1ccc(N2CCC(c3cc(-c4ccc(Cl)cc4Cl)n[nH]3)CC2)c([N+](=O)[O-])c1 -55.1%
CCOC(=O)N1CCC(N(CCN(C)C)C(=S)Nc2ccc(Oc3ccccc3)cc2)CC1 -89.1%
Cc1cccc2[nH]c3c(N4CC=C(c5ccc(F)cc5)CC4)ncnc3c12 -91.7%
COC(=O)COc1ccc(NS(=O)(=O)c2cccc([N+](=O)[O-])c2)cc1 -152%
CCCCN(C(=O)CCC(=O)Nc1cc(C)on1)C(C(=O)NC1CCCC1)c1ccc(F)cc1 (configuration not stated) -77%
COc1ccc(CNC(=O)C(C#N)c2nc3ccccc3nc2N2CCN(C)CC2)cc1 (configuration not stated) -51.7%
COC(=O)CNC(=O)C1Cc2ccccc2CN1S(=O)(=O)c1cccs1 (configuration not stated) -74.3%
OC(CNCC1CCCO1)Cn1c2ccccc2c2ccccc21 (configuration not stated) -56.1%
CSc1nnc(NC(=O)c2nc(S(=O)(=O)Cc3cccc(C)c3)ncc2Cl)s1 -102%
CCN(c1ccccc1)S(=O)(=O)c1ccc(NC(=O)c2nc(S(C)(=O)=O)ncc2Cl)cc1 -96.8%
Cc1cc(C)c2cc(C#N)c(N3CCCN(C(=S)NCCCN(C)C)CC3)nc2c1 -55.7%
COc1cc(/C=C/c2cc[n+](C)cc2)ccc1OCC(=O)Nc1ccc(Cl)c(Cl)c1 -89%
N#C/C(=C/c1ccc(N2CCCCCC2)o1)c1ccc(Cl)cc1 -102%
O=[N+]([O-])c1ccc(N=Nc2ncc[nH]2)cc1 -110%
CCOC(=O)C1=C(N)Oc2cc(O)ccc2C1c1ccc(C)cc1 (configuration not stated) -71.9%
Oc1cccc(C(O)CNCc2ccc(-c3ccccc3)cc2)c1 (configuration not stated) -50.9%
Cc1ccc2cc(CN(Cc3ccccc3)Cc3nnnn3C3CCCC3)c(=O)[nH]c2c1 -63.4%
Cc1ccc(NC(=O)c2cc3ccccc3o2)nc1 -96.2%
O=C(Cc1cccs1)N1CCN=C1SCc1ccc(Br)cc1 -102%
CCCCOc1ccc(-c2csc(N)n2)cc1[N+](=O)[O-] -50.2%
